Experimental data taken from PMC11149917, “Translational and Therapeutic Evaluation of RAS-GTP Inhibition by RMC-6236 in RAS-Driven Cancers” (Cancer Discovery, 2024).
The source gives many values for each of these; only a part stands here.

Test system: PRISM panel of 845 cancer cell lines
Experiment: PRISM assay
Assay type: cell-based, human
Method: The PRISM cell set comprised 845 cell lines representing more than 45 lineages (see Supplementary Table S1 for cell line information), which largely overlapped with the Cancer Cell Line Encyclopedia; https://portals.broadinstitute.org/ccle). Cell lines were grown in RPMI without phenol red and supplemented with 10% or 20% FBS for adherent and suspended lines, respectively. Parental cell lines were stably infected with a unique 24-nucleotide DNA barcode via lentiviral transduction and blasticidin selection. After selection, barcoded cell lines were expanded and subjected to quality control (Mycoplasma contamination test, an SNP test for confirming cell line identity, and barcode ID confirmation). Approved cell lines were then pooled (20–25 cell lines per pool) based on doubling time similarity and frozen in assay-ready vials.
RMC-6236 was added to 384-well plates at 8-point concentration with 3-fold dilutions in triplicate. These assay-ready plates were then seeded with the thawed cell line pools. Adherent cell pools were plated at 1,250 cells per well, whereas suspension and mixed adherent/suspension pools were plated at 2,000 cells per well. Treated cells were incubated for 5 days, and then lysed. Lysate plates were collapsed together prior to barcode amplification and detection.
Each cell line's unique barcode is located in the 3′UTR of the blasticidin-resistance gene and therefore is expressed as mRNA. Total mRNA was captured using magnetic particles that recognize polyA sequences. Captured mRNA was reverse-transcribed into cDNA and then the sequence containing the unique PRISM barcode was amplified using PCR. Finally, Luminex beads that recognize the specific barcode sequences in the cell set were hybridized to the PCR products and detected using a Luminex scanner which reports the signal as a median fluorescent intensity (MFI).
• Each detection well contained 10 control barcodes in increasing abundances as spike-in controls. For each plate, we first create a reference profile by calculating the median of the log2(MFI) values across negative control wells for each of these spiked-in barcodes. • For each well, a monotonic smooth p-spline was fitted to map the spike-in control levels to the reference profile. Next, we transform the log2(MFI) for each cell barcode using the fitted spline to allow well-to-well comparisons by correcting for amplification and detection artifacts. • Next, the separability between negative and positive control treatments was assessed. In particular, we calculated the error rate of the optimum simple threshold classifier between the control samples for each cell line and plate combination. The error rate is a measure of the overlap of the two control sets and was defined as error = (FP + FN)/n, where FP is false positives, FN is false negatives, and n is the total number of controls. A threshold was set between the distributions of positive and negative control log2(MFI) values (with everything below the threshold said to be positive and above said to be negative) such that this value is minimized. Additionally, we also calculated the dynamic range of each cell line. […] Additionally, any cell line that had less than 2 passing replicates was also omitted for the sake of reproducibility. Finally, we computed viability by normalizing with respect to the median negative control for each plate.
For every gene with nonsilent mutations in at least four cell lines, we compared the AUC values between cells with and without those mutations using a t test. This analysis was carried out for (i) the full data set; (ii) excluding cell lines with nonsilent KRAS mutations; and (iii) excluding cell lines that have either KRAS or NRAS nonsilent mutations.

CCn1c(-c2cc(N3CCN(C)CC3)cnc2[C@H](C)OC)c2c3cc(ccc31)-c1csc(n1)C[C@H](NC(=O)[C@H]1C[C@@H]1C)C(=O)N1CCC[C@H](N1)C(=O)OCC(C)(C)C2 [RMC-6236]
RMC-6236: RevMed PRISM: AUC (JJN3_HAEMATOPOIETIC_AND_LYMPHOID_TISSUE, NRAS p.Q61K): 0.5016
RMC-6236: RevMed PRISM: AUC (JM1_HAEMATOPOIETIC_AND_LYMPHOID_TISSUE): 0.9157
RMC-6236: RevMed PRISM: AUC (JMSU1_URINARY_TRACT): 0.9046
RMC-6236: RevMed PRISM: AUC (JOPACA1_PANCREAS, KRAS p.G12V): 0.3607
RMC-6236: RevMed PRISM: AUC (JVM3_HAEMATOPOIETIC_AND_LYMPHOID_TISSUE): 0.8423
RMC-6236: RevMed PRISM: AUC (KATOIII_STOMACH): 0.6304
RMC-6236: RevMed PRISM: AUC (KE37_HAEMATOPOIETIC_AND_LYMPHOID_TISSUE, NRAS p.G12D): 0.6632
RMC-6236: RevMed PRISM: AUC (KHM1B_HAEMATOPOIETIC_AND_LYMPHOID_TISSUE, KRAS p.G12C): 0.6016
RMC-6236: RevMed PRISM: AUC (KMBC2_URINARY_TRACT): 0.4217
RMC-6236: RevMed PRISM: AUC (KMCH1_BILIARY_TRACT): 0.9105
RMC-6236: RevMed PRISM: AUC (KMRC20_KIDNEY): 0.7172
RMC-6236: RevMed PRISM: AUC (KMS12BM_HAEMATOPOIETIC_AND_LYMPHOID_TISSUE): 0.9588
RMC-6236: RevMed PRISM: AUC (KMS21BM_HAEMATOPOIETIC_AND_LYMPHOID_TISSUE, NRAS p.Q61L): 0.6256
RMC-6236: RevMed PRISM: AUC (KMS28BM_HAEMATOPOIETIC_AND_LYMPHOID_TISSUE, KRAS p.G12A): 0.8006
RMC-6236: RevMed PRISM: AUC (KNS60_CENTRAL_NERVOUS_SYSTEM): 0.8532
RMC-6236: RevMed PRISM: AUC (KNS62_LUNG, HRAS p.Q61L): 0.5904
RMC-6236: RevMed PRISM: AUC (KON_UPPER_AERODIGESTIVE_TRACT): 0.4878
RMC-6236: RevMed PRISM: AUC (KP3_PANCREAS, KRAS p.G12V): 0.5452
RMC-6236: RevMed PRISM: AUC (KP4_PANCREAS, KRAS p.G12D): 0.699
RMC-6236: RevMed PRISM: AUC (KS1_CENTRAL_NERVOUS_SYSTEM): 0.7035
RMC-6236: RevMed PRISM: AUC (KU812_HAEMATOPOIETIC_AND_LYMPHOID_TISSUE): 0.6659
RMC-6236: RevMed PRISM: AUC (KURAMOCHI_OVARY): 0.9644
RMC-6236: RevMed PRISM: AUC (KYM1_SOFT_TISSUE): 0.6118
RMC-6236: RevMed PRISM: AUC (KYO1_HAEMATOPOIETIC_AND_LYMPHOID_TISSUE): 0.52
RMC-6236: RevMed PRISM: AUC (KYSE70_OESOPHAGUS): 0.7378
RMC-6236: RevMed PRISM: AUC (KYSE140_OESOPHAGUS): 0.7127
RMC-6236: RevMed PRISM: AUC (KYSE180_OESOPHAGUS): 0.7308
RMC-6236: RevMed PRISM: AUC (KYSE270_OESOPHAGUS): 0.751
RMC-6236: RevMed PRISM: AUC (KYSE520_OESOPHAGUS): 0.7057
RMC-6236: RevMed PRISM: AUC (L33_PANCREAS, KRAS p.G12D): 0.6282
RMC-6236: RevMed PRISM: AUC (LAMA84_HAEMATOPOIETIC_AND_LYMPHOID_TISSUE): 0.511
RMC-6236: RevMed PRISM: AUC (LC1SQSF_LUNG): 0.7959
RMC-6236: RevMed PRISM: AUC (LCLC103H_LUNG): 0.8089
RMC-6236: RevMed PRISM: AUC (LK2_LUNG): 0.6661
RMC-6236: RevMed PRISM: AUC (LMSU_STOMACH): 0.8111
RMC-6236: RevMed PRISM: AUC (LN18_CENTRAL_NERVOUS_SYSTEM): 0.7558
RMC-6236: RevMed PRISM: AUC (LN229_CENTRAL_NERVOUS_SYSTEM): 0.8162
RMC-6236: RevMed PRISM: AUC (LN464_CENTRAL_NERVOUS_SYSTEM): 0.8914
RMC-6236: RevMed PRISM: AUC (LNCAPCLONEFGC_PROSTATE): 0.8567
RMC-6236: RevMed PRISM: AUC (LOUNH91_LUNG): 0.3593
RMC-6236: RevMed PRISM: AUC (LPS141_SOFT_TISSUE): 1
RMC-6236: RevMed PRISM: AUC (LS180_LARGE_INTESTINE, KRAS p.G12D): 0.4318
RMC-6236: RevMed PRISM: AUC (LS1034_LARGE_INTESTINE, KRAS p.A146T): 0.6768
RMC-6236: RevMed PRISM: AUC (LU99_LUNG, KRAS p.G12C): 0.5232
RMC-6236: RevMed PRISM: AUC (LUDLU1_LUNG): 0.6736
RMC-6236: RevMed PRISM: AUC (M059K_CENTRAL_NERVOUS_SYSTEM): 0.8426
RMC-6236: RevMed PRISM: AUC (MCC26_SKIN, HRAS p.G12D): 1
RMC-6236: RevMed PRISM: AUC (MCC142_SKIN): 0.9196
RMC-6236: RevMed PRISM: AUC (MCF7_BREAST): 0.8891
RMC-6236: RevMed PRISM: AUC (MDAMB175VII_BREAST): 0.5554
RMC-6236: RevMed PRISM: AUC (MDAMB435S_SKIN): 0.9318
RMC-6236: RevMed PRISM: AUC (MDAMB436_BREAST): 0.8987
RMC-6236: RevMed PRISM: AUC (MDAMB468_BREAST): 0.776
RMC-6236: RevMed PRISM: AUC (MDST8_LARGE_INTESTINE): 1
RMC-6236: RevMed PRISM: AUC (MEG01_HAEMATOPOIETIC_AND_LYMPHOID_TISSUE): 0.468
RMC-6236: RevMed PRISM: AUC (MEL285_UVEA): 0.709
RMC-6236: RevMed PRISM: AUC (MEL290_UVEA): 0.9793
RMC-6236: RevMed PRISM: AUC (MELHO_SKIN): 0.9942
RMC-6236: RevMed PRISM: AUC (MEWO_SKIN): 0.7334
RMC-6236: RevMed PRISM: AUC (MFE296_ENDOMETRIUM): 1
RMC-6236: RevMed PRISM: AUC (MFE319_ENDOMETRIUM): 1
RMC-6236: RevMed PRISM: AUC (MHHES1_BONE): 0.8742
RMC-6236: RevMed PRISM: AUC (MKN7_STOMACH): 0.6783
RMC-6236: RevMed PRISM: AUC (MKN45_STOMACH): 0.3943
RMC-6236: RevMed PRISM: AUC (MONOMAC6_HAEMATOPOIETIC_AND_LYMPHOID_TISSUE): 0.7011
RMC-6236: RevMed PRISM: AUC (MPP89_PLEURA): 0.9671
RMC-6236: RevMed PRISM: AUC (MS751_CERVIX): 0.8009
RMC-6236: RevMed PRISM: AUC (MSTO211H_PLEURA): 0.6789
RMC-6236: RevMed PRISM: AUC (NB1_AUTONOMIC_GANGLIA): 0.681
RMC-6236: RevMed PRISM: AUC (NB4_HAEMATOPOIETIC_AND_LYMPHOID_TISSUE, KRAS p.A18D): 0.6933
RMC-6236: RevMed PRISM: AUC (NCCIT_TESTIS): 1
RMC-6236: RevMed PRISM: AUC (NCIH23_LUNG, KRAS p.G12C): 0.6322
RMC-6236: RevMed PRISM: AUC (NCIH28_PLEURA): 0.7774
RMC-6236: RevMed PRISM: AUC (NCIH82_LUNG): 0.8641
RMC-6236: RevMed PRISM: AUC (NCIH196_LUNG): 0.9944
RMC-6236: RevMed PRISM: AUC (NCIH211_LUNG): 0.9486
RMC-6236: RevMed PRISM: AUC (NCIH322_LUNG): 0.6812
RMC-6236: RevMed PRISM: AUC (NCIH358_LUNG, KRAS p.G12C): 0.2807
RMC-6236: RevMed PRISM: AUC (NCIH441_LUNG, KRAS p.G12V): 0.4143
RMC-6236: RevMed PRISM: AUC (NCIH460_LUNG, KRAS p.Q61H): 0.4565
RMC-6236: RevMed PRISM: AUC (NCIH520_LUNG): 0.994
RMC-6236: RevMed PRISM: AUC (NCIH596_LUNG): 0.7582
RMC-6236: RevMed PRISM: AUC (NCIH647_LUNG, KRAS p.G13D): 0.7687
RMC-6236: RevMed PRISM: AUC (NCIH650_LUNG, KRAS p.Q61L): 0.7186
RMC-6236: RevMed PRISM: AUC (NCIH661_LUNG): 0.8097
RMC-6236: RevMed PRISM: AUC (NCIH727_LUNG, KRAS p.G12V): 0.5432
RMC-6236: RevMed PRISM: AUC (NCIH838_LUNG): 0.8136
RMC-6236: RevMed PRISM: AUC (NCIH841_LUNG): 0.9452
RMC-6236: RevMed PRISM: AUC (NCIH1048_LUNG, NRAS p.T20NfsTer11): 0.7503
RMC-6236: RevMed PRISM: AUC (NCIH1299_LUNG, NRAS p.Q61K): 0.6264
RMC-6236: RevMed PRISM: AUC (NCIH1341_LUNG): 0.699
RMC-6236: RevMed PRISM: AUC (NCIH1437_LUNG): 0.7539
RMC-6236: RevMed PRISM: AUC (NCIH1563_LUNG): 0.7485
